According to PubChem BioAssay AID504339 (National Center for Advancing Translational Sciences (NCATS), 2011):
Values joined by “and” are separate entries in the source; they are usually repeats but may differ in a detail not shown here. Equal entries are not always repeated. Among all 390,000 compounds or so, about 17,000 (4.4%) were called active. This list was built around the results that the source calls inconclusive (neither active nor inactive); the mix of calls is not that of the screen. The call rests on the fitted dose curve; in most records, active means well fitted inhibition curve with a large enough effect; inconclusive means small, poorly fitted or top-dose-only effect; inactive means no such curve, though single readings can be large or run the other way. Potencies of inconclusive entries are doubtful fits and often do not repeat.

biological target: Lysine-specific demethylase 4A (Homo sapiens) (UniProt O75164); assay: qHTS Assay for Inhibitors of JMJD2A-Tudor Domain; details: AlphaScreen JMJD2A-Tudor / H3K4me3 peptide binding; activity change, negative = inhibition: at 114 µM (top of the series); further: nearly all actives have a fitted effect of over 50% in size
UniProt O75164, sequence (O75164 whole entry, looked up, the tested form may be a part): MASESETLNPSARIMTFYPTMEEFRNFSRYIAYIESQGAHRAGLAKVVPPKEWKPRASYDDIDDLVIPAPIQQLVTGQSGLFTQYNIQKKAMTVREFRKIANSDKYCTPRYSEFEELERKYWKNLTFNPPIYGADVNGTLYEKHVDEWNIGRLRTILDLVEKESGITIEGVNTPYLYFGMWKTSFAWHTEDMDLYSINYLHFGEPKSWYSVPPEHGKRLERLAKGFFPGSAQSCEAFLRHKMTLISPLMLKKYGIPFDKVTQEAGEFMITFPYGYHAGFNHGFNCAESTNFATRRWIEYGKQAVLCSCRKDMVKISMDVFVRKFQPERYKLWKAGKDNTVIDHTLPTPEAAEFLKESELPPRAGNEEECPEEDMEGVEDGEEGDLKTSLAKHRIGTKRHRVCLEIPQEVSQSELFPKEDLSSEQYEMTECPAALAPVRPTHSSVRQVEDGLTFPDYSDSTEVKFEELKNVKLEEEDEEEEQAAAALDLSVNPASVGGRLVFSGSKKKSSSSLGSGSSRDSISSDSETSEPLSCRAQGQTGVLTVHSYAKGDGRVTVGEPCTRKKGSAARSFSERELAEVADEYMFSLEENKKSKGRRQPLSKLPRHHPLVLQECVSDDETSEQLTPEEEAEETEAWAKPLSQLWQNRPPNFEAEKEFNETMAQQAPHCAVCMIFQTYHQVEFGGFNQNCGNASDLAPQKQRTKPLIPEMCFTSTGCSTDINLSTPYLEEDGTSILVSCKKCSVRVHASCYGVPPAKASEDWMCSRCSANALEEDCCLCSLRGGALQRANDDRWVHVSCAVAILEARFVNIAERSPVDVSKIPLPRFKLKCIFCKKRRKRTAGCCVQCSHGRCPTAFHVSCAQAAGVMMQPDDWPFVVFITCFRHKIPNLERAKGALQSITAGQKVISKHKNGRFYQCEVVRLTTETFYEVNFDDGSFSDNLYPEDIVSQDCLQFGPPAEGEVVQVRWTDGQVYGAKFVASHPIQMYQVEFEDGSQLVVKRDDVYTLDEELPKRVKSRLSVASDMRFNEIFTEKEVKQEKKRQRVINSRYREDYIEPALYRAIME
On the % scale 0 is the no-effect control and ±100 the full control effect; potency means the concentration at half of the fitted maximal effect; tags describe the fitted curve by direction and shape.

Activity change, negative = inhibition, inactive:
O=c1c(Cc2c(F)cccc2Cl)c(O)ccn1CCc1c[nH]c2ccccc12 -22.6%
COc1cc(C(=O)NNC(=S)NC(=O)c2ccc(F)cc2)cc(OC)c1OC -28.4%
CN(CC(=O)Nc1ccccc1C(F)(F)F)C(=O)C1CC1 -9.48%
Nc1cc(Cl)ccc1N1CCCCC1 -9.42%
Cc1n(CC(=O)c2ccc(F)cc2)c2ccccc2[n+]1C -6.12%
CC(C)C(=O)N1CCN(C2=NS(=O)(=O)c3ccccc32)CC1 -10.7% [at 11.4 µM]
CC(C)Cn1c(C(C)C)nc([N+](=O)[O-])c1S(=O)(=O)c1ccc(F)cc1 -25.4%
COc1ccc(C(=O)NC(=S)Nc2cccc(NC(=O)c3ccco3)c2)cc1[N+](=O)[O-] -3.42%
COc1ccc(C2C=C(c3ccccc3)Nc3nc(NC(=O)/C=C/c4ccccc4OC)nn32)cc1 (configuration not stated) -16.9%
COc1ccc(NS(=O)(=O)c2c(C)nc3scc(C)n3c2=O)cc1 -3.42%
COCCNC(=O)NC(=O)CSc1nc(C)c(C)c(C)n1 9.28%
CC[n+]1c(C=C2C=C(C)OC(C)=C2)sc2ccccc21 -22.8%
CC(C)c1ccccc1OCCCCN1CCCCC1 -3.99%
CC(C)Cc1nnc(NC(=O)Cc2ccc([N+](=O)[O-])cc2)s1 -13.9%
CC1(C)CC(NS(=O)(=O)c2ccc(C(C)(C)C)cc2)CC(C)(C)N1 -4.79%
CC(C)c1nc(SCC(=O)N2CCCc3ccccc32)c2c(=O)n(C)c(=O)n(C)c2n1 -16.7%
CCn1c(=O)c2sccc2n(CC(=O)NCCC2=CCCCC2)c1=O -5.28%
CCOC(=O)C1CCN(C(=O)c2sc3nc(C)nc(N4CCC(C)CC4)c3c2C)CC1 -15.2%
COc1cc(NC(=O)Cn2cnc(S(=O)(=O)N3CCC(C)CC3)c2)cc(OC)c1OC -23.7%
COc1ccc(OC)c(CCNC(=O)c2nn(C)c3c2CSc2ccccc2-3)c1 -5.96%
CNC(=O)c1ccc2nc(Cc3ccccc3)oc2c1 -5.43%
C/C(=N\NC(=O)c1ccc2c(c1)OCO2)c1ccc(NS(C)(=O)=O)cc1 1.81%
O=C(Nc1nc2c(s1)CCCC2)c1ccccc1F -14.9%
Cc1ccc(NC(=O)c2ccc(N(Cc3ccccc3)S(C)(=O)=O)cc2)cc1 -12.1%
Cc1cc(Br)c2c(c1)C1(OCCO1)C(=O)N2 -6.34%
COc1ccc(S(=O)(=O)N2CCOCC2)cc1NC(=O)COC(=O)CCS(=O)(=O)c1ccc(C)cc1 -2.26%

Potency, inactive:
CC(=O)c1cc(-c2ccccc2)n(CCC(=O)NC2CCCCC2)c1C

Potency, inconclusive:
COc1ccc(Nc2c3c(nc4ccc(NC(=O)c5cc(Cl)ccc5OC)cc24)CCCC3)cc1OC 39.8 µM [inhibitor, partial curve]
Nc1nc(COc2ccc(Cl)cc2)cs1 28.2 µM [inhibitor, partial curve]
COc1ccc(N2CCN(c3oc(/C=C/c4ccccc4OC)nc3C#N)CC2)cc1 4.47 µM [inhibitor, full curve, poor fit]
Cc1ccc(S(=O)(=O)N/N=C\c2ccc(Cl)c([N+](=O)[O-])c2)cc1 63.1 µM [inhibitor, partial curve]
CCOc1ccc(NC(=O)c2c(NCc3cccs3)sc3c2CCCCC3)cc1 44.7 µM [inhibitor, partial curve]
CCN1C(=O)[C@@H]2Cc3c([nH]c4ccccc34)C(c3ccc(OC)cc3)N2C1=S (some centres not stated) 31.6 µM [inhibitor, full curve, poor fit]
O=C(c1cccc(S(=O)(=O)N2CCc3ccccc3C2)c1)N1CCN(c2ccc(O)cc2)CC1 70.8 µM [inhibitor, single point]
COc1ccc(Nc2nc(NN)nc(C)c2[N+](=O)[O-])cc1 50.1 µM [inhibitor, partial curve]
CCOc1ccc(NC(=O)CCC(=O)N2CCSc3ccccc32)cc1 89.1 µM [inhibitor, partial curve]
C/C(=N\N=C1/NC(=O)C(C)S1)c1ccco1 (configuration not stated) 89.1 µM [inhibitor, partial curve]
COc1ccc(CNC(=O)c2cc3oc4ccccc4c3n2C)cc1OC 70.8 µM [inhibitor, single point]
CN(CC(=O)Nc1ccc(N2CCOCC2)cc1)C(=O)CCc1cc(C(C)(C)C)c(O)c(C(C)(C)C)c1 63.1 µM [inhibitor, partial curve]
COc1ccc(-n2c(O)c(/C=N/NS(=O)(=O)c3ccc(C)cc3)c3ccccc3c2=O)cc1OC 56.2 µM [inhibitor, partial curve]
CCCOc1ccc(/C=c2\sc3nc(-c4ccco4)nn3c2=O)cc1OCC 79.4 µM [inhibitor, partial curve]
COc1cc2ccc(=O)oc2c(O)c1OCC=C(C)C 89.1 µM [inhibitor, single point]
Clc1cccc(Oc2cnns2)c1Cl 3.55 µM [inhibitor, single point]
NC(=O)c1c(N)sc2c1CCCCC2 50.1 µM [inhibitor, partial curve]
O=C1Nc2cc(C(=O)N3CCN(c4ccccn4)CC3)ccc2S/C1=C\c1ccccc1 15.8 µM [inhibitor, full curve, poor fit]
C/C(CC1CC(C)OC1=O)=N\NC(N)=S (configuration not stated) 8.91 µM [inhibitor, full curve]
COc1ccc2c(c1)-c1nc(/N=C/c3ccc(O)cc3)sc1CC2 20 µM [inhibitor, full curve, poor fit]
Fc1ccccc1C1CC(c2ccco2)=Nc2ccccc2S1 (configuration not stated) 56.2 µM [inhibitor, partial curve]
O=C(O)c1cc(N/N=C/c2c[nH]c3ccccc23)ccc1Cl 79.4 µM [inhibitor, partial curve]
Cc1ccsc1C1NC(=O)c2c(sc3c2CCN(C)C3)N1 (configuration not stated) 56.2 µM [inhibitor, partial curve]
CC(/C=C1\SC(=S)N(NC(=O)c2ccc(C)cc2)C1=O)=C\c1ccccc1 2.51 µM [inhibitor, full curve]
Cc1ccc(C)c(NCc2n[nH]c(=S)n2-c2ccccc2)c1 15.8 µM [inhibitor, full curve]
C=CCNc1nc(-c2ccc(OC)cc2OC)cs1 44.7 µM [inhibitor, partial curve]
Cc1cc(C)cc(Oc2ccc(N)cc2)c1 56.2 µM [inhibitor, partial curve]
COc1cc(C2C(C(=O)c3ccco3)=C(O)C(=O)N2c2cc(C)on2)cc(Br)c1O (configuration not stated) 79.4 µM [inhibitor, single point]
Cc1sc(-c2ccccn2)nc1OC(=O)c1cccc(Cl)c1Cl 89.1 µM [inhibitor, single point]
Cn1cc(Br)c(C(=O)NNC(=O)c2ccccc2)n1 35.5 µM [inhibitor, single point]
O=C1/C(=C\c2cccs2)N=C(c2cccs2)N1Nc1ccccc1 63.1 µM [inhibitor, partial curve]
CC(C)c1ccc(C2=NC(c3ccncc3)=Nc3ccc(F)cc3N2)cc1 44.7 µM [inhibitor, partial curve]
COc1ccc(CN2C=C3C(=O)C(C)(OC(=O)CCc4ccccc4)C(=O)C=C3C=C2c2ccc(C#N)cc2)cc1 (configuration not stated) 50.1 µM [inhibitor, partial curve]
COc1ccc(CC(=O)O/N=C(\N)c2ccccn2)cc1 14.1 µM [inhibitor, partial curve, poor fit]
Cn1cccc1/C=N/NC(=O)c1cc2ccccc2cc1O 31.6 µM [inhibitor, full curve]
Cc1cc(C)cc(N(C(=O)c2csnn2)C(C(=O)NC2CCCC2)c2cccnc2)c1 (configuration not stated) 100 µM [inhibitor, partial curve, poor fit]

Potency, active:
Cc1cc(NS(=O)(=O)c2ccc(NC(=S)NC(=O)c3cccnc3)cc2)no1 31.6 µM
O=c1c2ccccc2sn1-c1ccc(S(=O)(=O)N2CCOCC2)cc1 50.1 µM
O=C(NC1c2ccccc2-c2ccccc21)c1ccco1 56.2 µM
O=c1c2c3c(sc2n(CCN2CCOCC2)c(=O)n1Cc1ccco1)CCCCC3 89.1 µM
Cc1cc(C)c2c(=O)n(CC(=O)Nc3cccc(Cl)c3C)sc2n1 2 µM
CC(C)(C)C1C/C(=C/c2ccco2)C(=O)/C(=C/c2ccco2)C1 (configuration not stated) 31.6 µM
Cc1ccccc1C(=O)Nc1cccc(C(=O)N/N=C/c2cc(Cl)cc([N+](=O)[O-])c2O)c1 50.1 µM
COc1ccc(NC(=O)CN(C)CC(=O)N2CCCCCC2)cc1 14.1 µM
O=C(CN1CCCCCC1)N/N=C/c1cccs1 3.16 µM
Cn1c(=S)[nH]c2ccccc21 50.1 µM
CN1CCN(C(=S)NCCc2ccccc2)CC1 4.47 µM
Clc1ccc(OCCN2CCCCC2)c(Cl)c1 5.62 µM
COC/C=C/C1=CC2=CC(=O)C(C)(OC(=O)C3CCCC3)C(=O)C2=CO1 (configuration not stated) 63.1 µM
CCC(=O)NC(c1cccs1)c1cc([N+](=O)[O-])c2cccnc2c1O (configuration not stated) 35.5 µM and 79.4 µM
